# Some of the results follow.
# B1: Epa1 (Candida glabrata) (protein)
# chain: MGSSHHHHHHSSGLVPRGSHMTSSNDISLASKDPTTFPLGCSPDITTPKKGLSMELYSYDFRKKGSYPCWDAAYLDPNYPRTGYKSHRLLAKVDGVTGNINFYYHATKGCTPQLGHLPASYNYPKPLTMTNFTMLLYGYFRPKVTGFHTFTISADDLLFVNFGAGNAFDCCRRDSSADHFGNYQAYAIWGSKTAKDELTVHLDAGVYYPIRLFYNNREYDGALSFTFKTESNENTVSDFSEYFFSLDDTEEGCPGLISYD
# Experiments:
# Assay in all cases: glycan array binding signal (z-score within array); higher = stronger binding
# Settings in all cases: glycan notation: IUPAC condensed, linker removed
# [1] = molecular target: Neu5Ac(a2-6)Gal(b1-4)GlcNAc(b1-2)Man(a1-3)[Man(a1-6)]Man(b1-4)GlcNAc(b1-4)GlcNAc
# Procedure, shortened: (§1)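 Arrays were curated from the Consortium for Functional Glycomics database, 3228 in total, and kept only where the protein sequence was available. Binding is expressed as a within-array Z-score. This score was averaged across arrays of the same protein sequence at different concentrations or buffers and across linkers, and negative values can be read as non-binding.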
# [2] = molecular target: Neu5Ac(a2-6)Gal(b1-4)GlcNAc(b1-2)Man(a1-3)[Neu5Ac(a2-3)Gal(b1-4)GlcNAc(b1-2)Man(a1-6)]Man(b1-4)GlcNAc(b1-4)GlcNAc
# Procedure, shortened: as §1
# [3] = molecular target: Neu5Ac(a2-6)Gal(b1-4)GlcNAc(b1-2)Man(a1-3)[Neu5Ac(a2-6)Gal(b1-4)GlcNAc(b1-2)Man(a1-6)]Man(b1-4)GlcNAc(b1-4)GlcNAc
# Procedure, shortened: as §1
# [4] = molecular target: Neu5Ac(a2-6)Gal(b1-4)GlcNAc(b1-2)Man(a1-3)[Neu5Ac(a2-6)Gal(b1-4)GlcNAc(b1-2)Man(a1-6)]Man(b1-4)GlcNAc(b1-4)[Fuc(a1-6)]GlcNAc
# Procedure, shortened: as §1
# [5] = molecular target: Neu5Ac(a2-6)Gal(b1-4)GlcNAc(b1-2)Man(a1-6)Man(b1-4)GlcNAc(b1-4)GlcNAc
# Procedure, shortened: as §1
# [6] = molecular target: Neu5Ac(a2-6)Gal(b1-4)GlcNAc(b1-2)Man(a1-6)[Gal(b1-4)GlcNAc(b1-2)Man(a1-3)]Man(b1-4)GlcNAc(b1-4)GlcNAc
# Procedure, shortened: as §1
# [7] = molecular target: Neu5Ac(a2-6)Gal(b1-4)GlcNAc(b1-2)Man(a1-6)[GlcNAc(b1-2)Man(a1-3)]Man(b1-4)GlcNAc(b1-4)GlcNAc
# Procedure, shortened: as §1
# [8] = molecular target: Neu5Ac(a2-6)Gal(b1-4)GlcNAc(b1-2)Man(a1-6)[Man(a1-3)]Man(b1-4)GlcNAc(b1-4)GlcNAc
# Procedure, shortened: as §1
# [9] = molecular target: Neu5Ac(a2-6)Gal(b1-4)GlcNAc(b1-2)[Neu5Ac(a2-6)Gal(b1-4)GlcNAc(b1-4)]Man(a1-3)[GlcNAc(b1-4)][Neu5Ac(a2-6)Gal(b1-4)GlcNAc(b1-2)[Neu5Ac(a2-6)Gal(b1-4)GlcNAc(b1-6)]Man(a1-6)]Man(b1-4)GlcNAc(b1-4)GlcNAc
# Procedure, shortened: as §1
# [10] = molecular target: Neu5Ac(a2-6)Gal(b1-4)GlcNAc(b1-2)[Neu5Ac(a2-6)Gal(b1-4)GlcNAc(b1-4)]Man(a1-3)[GlcNAc(b1-4)][Neu5Ac(a2-6)Gal(b1-4)GlcNAc(b1-4)Man(a1-6)]Man(b1-4)GlcNAc(b1-4)GlcNAc
# Procedure, shortened: as §1
# [11] = molecular target: Neu5Ac(a2-6)Gal(b1-4)GlcNAc(b1-2)[Neu5Ac(a2-6)Gal(b1-4)GlcNAc(b1-6)]Man(a1-6)[Neu5Ac(a2-6)Gal(b1-4)GlcNAc(b1-2)Man(a1-3)][GlcNAc(b1-4)]Man(b1-4)GlcNAc(b1-4)GlcNAc
# Procedure, shortened: as §1
# [12] = molecular target: Neu5Ac(a2-6)Gal(b1-4)GlcNAc(b1-3)Gal(b1-3)GlcNAc
# Procedure, shortened: as §1
# [13] = molecular target: Neu5Ac(a2-6)Gal(b1-4)GlcNAc(b1-3)Gal(b1-4)GlcNAc
# Procedure, shortened: as §1
# [14] = molecular target: Neu5Ac(a2-6)Gal(b1-4)GlcNAc(b1-3)Gal(b1-4)GlcNAc(b1-2)Man(a1-3)[Neu5Ac(a2-6)Gal(b1-4)GlcNAc(b1-3)Gal(b1-4)GlcNAc(b1-2)Man(a1-6)]GalNAc
# Procedure, shortened: as §1
# [15] = molecular target: Neu5Ac(a2-6)Gal(b1-4)GlcNAc(b1-3)Gal(b1-4)GlcNAc(b1-3)Gal(b1-4)GlcNAc
# Procedure, shortened: as §1
# [16] = molecular target: Neu5Ac(a2-6)Gal(b1-4)GlcNAc(b1-3)Gal(b1-4)GlcNAc(b1-3)Gal(b1-4)GlcNAc(b1-2)Man(a1-3)[Neu5Ac(a2-6)Gal(b1-4)GlcNAc(b1-3)Gal(b1-4)GlcNAc(b1-3)Gal(b1-4)GlcNAc(b1-2)Man(a1-6)]GalNAc
# Procedure, shortened: as §1
# [17] = molecular target: Neu5Ac(a2-6)Gal(b1-4)GlcNAc(b1-3)Gal(b1-4)GlcNAc(b1-3)GalNAc
# Procedure, shortened: as §1
# [18] = molecular target: Neu5Ac(a2-6)Gal(b1-4)GlcNAc(b1-3)Gal(b1-4)GlcNAc(b1-3)[Neu5Ac(a2-6)Gal(b1-4)GlcNAc(b1-3)Gal(b1-4)GlcNAc(b1-6)]GalNAc
# Procedure, shortened: as §1
# [19] = molecular target: Neu5Ac(a2-6)Gal(b1-4)GlcNAc(b1-3)Gal(b1-4)GlcNAc(b1-6)[Gal(b1-3)]GalNAc
# Procedure, shortened: as §1
# [20] = molecular target: Neu5Ac(a2-6)Gal(b1-4)GlcNAc(b1-3)Gal(b1-4)[Fuc(a1-3)]GlcNAc(b1-3)Gal(b1-4)[Fuc(a1-3)]GlcNAc
# Procedure, shortened: as §1
# [21] = molecular target: Neu5Ac(a2-6)Gal(b1-4)GlcNAc(b1-3)GalNAc
# Procedure, shortened: as §1
# [22] = molecular target: Neu5Ac(a2-6)Gal(b1-4)GlcNAc(b1-3)[Neu5Ac(a2-6)Gal(b1-4)GlcNAc(b1-6)]GalNAc
# Procedure, shortened: as §1
# [23] = molecular target: Neu5Ac(a2-6)Gal(b1-4)GlcNAc(b1-6)GalNAc
# Procedure, shortened: as §1
# [24] = molecular target: Neu5Ac(a2-6)Gal(b1-4)GlcNAc(b1-6)[Gal(b1-3)GlcNAc(b1-3)]Gal(b1-4)Glc
# Procedure, shortened: as §1
# [25] = molecular target: Neu5Ac(a2-6)Gal(b1-4)GlcNAc(b1-6)[Gal(b1-3)]GalNAc
# Procedure, shortened: as §1
# [26] = molecular target: Neu5Ac(a2-6)Gal(b1-4)GlcNAc6S
# Procedure, shortened: as §1
# [27] = molecular target: Neu5Ac(a2-6)GalNAc
# Procedure, shortened: as §1
# [28] = molecular target: Neu5Ac(a2-6)GalNAc(b1-4)GlcNAc
# Procedure, shortened: as §1
# [29] = molecular target: Neu5Ac(a2-6)GalNAc(b1-4)GlcNAc6S
# Procedure, shortened: as §1
# [30] = molecular target: Neu5Ac(a2-6)GlcNAc(b1-4)GlcNAc
# Procedure, shortened: as §1
# [31] = molecular target: Neu5Ac(a2-6)GlcNAc(b1-4)GlcNAc(b1-4)GlcNAc
# Procedure, shortened: as §1
binder,measurement,setting,value
B1,glycan array binding signal (z-score),[1],-0.271
same,glycan array binding signal (z-score),[2],-0.332
same,glycan array binding signal (z-score),[3],-0.24
same,glycan array binding signal (z-score),[4],-0.272
same,glycan array binding signal (z-score),[5],-0.281
same,glycan array binding signal (z-score),[6],-0.14
same,glycan array binding signal (z-score),[7],-0.269
same,glycan array binding signal (z-score),[8],-0.287
same,glycan array binding signal (z-score),[9],-0.274
same,glycan array binding signal (z-score),[10],-0.284
same,glycan array binding signal (z-score),[11],-0.255
same,glycan array binding signal (z-score),[12],-0.316
same,glycan array binding signal (z-score),[13],-0.337
same,glycan array binding signal (z-score),[14],-0.197
same,glycan array binding signal (z-score),[15],-0.267
same,glycan array binding signal (z-score),[16],-0.251
same,glycan array binding signal (z-score),[17],-0.26
same,glycan array binding signal (z-score),[18],-0.219
same,glycan array binding signal (z-score),[19],0.709
same,glycan array binding signal (z-score),[20],-0.272
same,glycan array binding signal (z-score),[21],-0.224
same,glycan array binding signal (z-score),[22],-0.251
same,glycan array binding signal (z-score),[23],-0.293
same,glycan array binding signal (z-score),[24],-0.095
same,glycan array binding signal (z-score),[25],0.955
same,glycan array binding signal (z-score),[26],-0.335
same,glycan array binding signal (z-score),[27],-0.318
same,glycan array binding signal (z-score),[28],-0.361
same,glycan array binding signal (z-score),[29],-0.357
same,glycan array binding signal (z-score),[30],-0.265
same,glycan array binding signal (z-score),[31],-0.36

# From the supplement of paper PMC8728848
